Assay results from PubChem BioAssay AID1645882 (National Center for Advancing Translational Sciences (NCATS), 2021).
About 120 (0.75%) of roughly 16,000 compounds were called active. Inconclusive results (about 4%) are left out. Calls come from the whole dose curve; as a rule, active = well fitted inhibition curve with a large enough effect; inconclusive = small, poorly fitted or top-dose-only effect; inactive = no such curve, though single readings can be large or run the other way. This is one part of the list.
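Note: plate controls were DMSO for no effect and ATA control for full effect; nearly all actives have a fitted effect of over 75% in size.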

Each compound was assayed against Rap guanine nucleotide exchange factor 3 (Homo sapiens) (UniProt O95398) (assay: Validation qHTS for antagonist of cAMP-regulated guanine nucleotide exchange factor 3 (EPAC1)). Conditions: EPAC1 Rap1B-BODIPY-GDP exchange, fluorescence; series mostly up to 150 µM; activity change, negative = inhibition: at the top concentration.
Chain of UniProt O95398 (O95398 whole entry, looked up): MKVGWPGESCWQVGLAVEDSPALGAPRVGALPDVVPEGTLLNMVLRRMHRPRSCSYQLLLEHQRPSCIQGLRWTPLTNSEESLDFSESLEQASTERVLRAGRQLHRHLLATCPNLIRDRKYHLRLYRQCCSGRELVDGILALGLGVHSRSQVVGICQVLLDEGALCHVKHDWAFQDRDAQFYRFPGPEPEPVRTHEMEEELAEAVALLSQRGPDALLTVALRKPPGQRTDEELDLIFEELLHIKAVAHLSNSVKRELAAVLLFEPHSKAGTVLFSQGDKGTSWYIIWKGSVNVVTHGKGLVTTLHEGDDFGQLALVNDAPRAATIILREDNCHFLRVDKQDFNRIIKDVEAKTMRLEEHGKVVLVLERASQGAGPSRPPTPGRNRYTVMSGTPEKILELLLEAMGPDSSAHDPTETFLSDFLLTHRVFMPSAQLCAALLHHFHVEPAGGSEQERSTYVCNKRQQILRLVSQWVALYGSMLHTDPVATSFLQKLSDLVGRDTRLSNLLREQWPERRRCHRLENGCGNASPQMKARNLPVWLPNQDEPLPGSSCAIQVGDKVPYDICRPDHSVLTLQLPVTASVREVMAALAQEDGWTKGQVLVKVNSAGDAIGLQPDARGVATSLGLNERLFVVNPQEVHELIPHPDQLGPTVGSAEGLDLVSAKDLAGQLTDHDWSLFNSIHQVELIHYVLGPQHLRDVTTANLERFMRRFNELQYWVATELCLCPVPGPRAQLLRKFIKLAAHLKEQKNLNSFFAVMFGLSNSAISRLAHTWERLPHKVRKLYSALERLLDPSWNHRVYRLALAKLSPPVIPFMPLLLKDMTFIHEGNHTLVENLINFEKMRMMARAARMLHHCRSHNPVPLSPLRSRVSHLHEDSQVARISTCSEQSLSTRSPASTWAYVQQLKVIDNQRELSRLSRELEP
Method in brief: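 EPAC1 (100 nM) mixed with 250 nM RAP1B-BODIPY-GDP and 50 uM GDP; compounds in concentration series, 5 min at room temperature. Fluorescence (ex 480/em 540 nm) read every 5 min for 30 min; normalized to ATA control and DMSO.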
In the case of `Cc1oc(-c2cccc(NC(=O)C3CCCN(C)C3)c2)nc1CNC(=O)c1coc2c1C(=O)CCC2` (stereo unspecified), the “activity change, negative = inhibition” value is reported as inactive: -4.08%.
`CCCCC(CC)COC(=O)C(C#N)=C(c1ccccc1)c1ccccc1` (stereo unspecified) was tested, and the “activity change, negative = inhibition” value was inactive: -6.26%.
With `Nc1c2c(nc3ccccc13)CCCC2` the activity change, negative = inhibition was “inactive”.
In the case of `CN(C)C(=O)c1ccc(-c2ccc3ncnc(N(C)Cc4ccco4)c3c2)cc1`, the “activity change, negative = inhibition” value is reported as inactive: 11.8%.
In the case of `COc1ncc2nc(-c3ccc(Cl)cc3)c(=O)n(C)c2n1`, the “activity change, negative = inhibition” value is reported as inactive: 12.5%.
With `CC(=O)c1c(O)c(C)c(O)c2c1OC1=CC(=O)C(C(C)=O)C(=O)[C@@]12C` (stereo partly specified) the “activity change, negative = inhibition” value was inactive: 11.3%.
With `CC(C)(C)C(=O)OCC(=O)[C@H]1CC[C@H]2[C@@H]3CCC4=CC(=O)CC[C@]4(C)[C@H]3CC[C@]12C` the “activity change, negative = inhibition” value was inactive: 6.25%.
With `COc1ccc(CN2CCC3(CC2)c2ccccc2[C@@H](NC(=O)c2ccccc2OC)[C@@H]3O)cc1O` the “activity change, negative = inhibition” value was inactive: 6.91%.
In the case of `O=c1c(-c2cc(F)cc(F)c2)nc2cnc(N3CCOCC3)nc2n1-c1ccccc1`, the “activity change, negative = inhibition” value is reported as inactive: 12.4%.
For `CN(C)c1ccc(/C=C/c2ccnc3ccccc23)cc1Cl`, the “activity change, negative = inhibition” value was inactive: -3.26%.
In the case of `C/C(=C(\CCOP(=O)(O)O)SC(=O)c1ccccc1)N(C=O)Cc1cnc(C)nc1N`, the “activity change, negative = inhibition” value is reported as inactive: 4.24% [at 75.8 µM].
With `O=C1CCC[C@@H]2[C@@H](Cc3ccccc3)[C@@H](Nc3ccccc3)C[C@@H]3CCN1[C@@H]32` the “activity change, negative = inhibition” value was inactive: -1.4%.
For `CC(=O)SC1CC2=CC(=O)CC[C@]2(C)C2CC[C@@]3(C)C(CC[C@@]34CCC(=O)O4)C12` (stereo partly specified), the “activity change, negative = inhibition” value was inactive: 15.8% [at 75.8 µM].
With `CCN(CC)C(=S)SSC(=S)N(CC)CC` the activity change, negative = inhibition was “inactive”.
With `CN1CCN(c2ncnc3ccc(-c4cccc(C#N)c4)cc23)CC1` the “activity change, negative = inhibition” value was inactive: 0.851%.
In the case of `O=c1cnc2cnc(Nc3ccccc3)nc2n1Cc1ccc(F)cc1`, the “activity change, negative = inhibition” value is reported as inactive: 11.9%.
In the case of `O=S(=O)(c1ccccc1)N1CCC2(CCCN(c3ccccc3)C2)CC1`, the “activity change, negative = inhibition” value is reported as inactive: 5.08%.
For `COc1cccc(CN2CCCC(c3nc(-c4ccncc4)ncc3-c3ccccc3C)C2)c1O` (stereo unspecified), the “activity change, negative = inhibition” value was inactive: -0.271%.
In the case of `Cc1cc2nc3ccc(=[N+](C)C)cc-3sc2cc1N`, the “activity change, negative = inhibition” value is reported as inactive: -6.65%.
In the case of `CCCCCCc1ccc(N2C[C@H](CCCCC)[C@@H](CC(=O)NCc3ccc(OC)cc3)C2=O)cc1`, the “activity change, negative = inhibition” value is reported as inactive: -9.97%.
For `O=C(O)[C@@H]1CSCN1`, the “activity change, negative = inhibition” value was inactive: 9.59%.
In the case of `C=C[C@@]1(C)CC(=O)[C@]2(O)[C@@]3(C)[C@@H](O)CCC(C)(C)[C@@H]3[C@H](O)[C@H](OC(C)=O)[C@@]2(C)O1`, the “activity change, negative = inhibition” value is reported as inactive: 2.77%.
With `CCCCC/C=C\C\C=C/C=C/C=C/[C@@H](SC[C@H](N)C(=O)NCC(=O)O)[C@@H](O)CCCC(=O)O` the activity change, negative = inhibition was inactive: 25.7% [at 1.57 µM].
In the case of `CCC1CN(CCNC(=O)c2cn3cc(C)ccc3n2)Cc2cc(OC)ccc2O1` (stereo unspecified), the “activity change, negative = inhibition” value is reported as inactive: 4.21%.
With `Nc1ccn([C@@H]2O[C@H](CO)[C@@H](O)C2O)c(=O)n1` (stereo partly specified) the activity change, negative = inhibition was “inactive”.
With `COc1cc(OC)c2c(=O)c(-c3ccccc3)coc2c1` the “activity change, negative = inhibition” value was inactive: -10.8%.
With `CN1CCN(c2ccnc(-c3ccoc3)n2)CC1` the “activity change, negative = inhibition” value was inactive: -16.5%.
For `COCC(=O)N1CCC2(CC1)CN(c1ccccn1)C2`, the “activity change, negative = inhibition” value was inactive: 9.53%.
In the case of `COC(=O)c1cccc(C(=O)N2CCc3c(cnc(C)c3CNC(=O)/C=C/c3cccs3)C2)c1`, the “activity change, negative = inhibition” value is reported as inactive: 1.87%.
`CCN(CC)CCOc1ccc2c(c1)C(=O)c1cc(OCCN(CC)CC)ccc1-2` was tested, and the “activity change, negative = inhibition” value was inactive: 15.2%.
`COc1ccccc1-c1nccc(NC2CCNCC2)n1` was tested, and the “activity change, negative = inhibition” value was inactive: -0.32%.
For `CC/C(=C\c1ccc(C(=O)OC)cc1)c1cc(OC)cc2oc3ccccc3c12`, the “activity change, negative = inhibition” value was inactive: 10.7%.
In the case of `CCS(=O)(=O)NCc1c(C)ncc2c1CCN(C(=O)c1csc(-c3cccs3)n1)C2`, the “activity change, negative = inhibition” value is reported as inactive: 6.79%.
With `Oc1ccc(Cn2cc[nH]c2=S)cc1` the “activity change, negative = inhibition” value was inactive: 5.13% [at 75.8 µM].
In the case of `C=C[C@H](CC(C)C)N(Cc1ccccc1)S(=O)(=O)N(Cc1ccccc1)[C@@H](C=C)CC(C)C`, the “activity change, negative = inhibition” value is reported as inactive: 0.32%.
In the case of `COc1ccc(-c2ccnc(-n3ncc(C(=O)NC(C)(C)CO)c3C3CC3)n2)cc1F`, the “activity change, negative = inhibition” value is reported as inactive: 5.31%.
With `CC(=O)N1CCC2(CC1)CCN(c1ccccc1)CC2` the “activity change, negative = inhibition” value was inactive: 12.3%.
`CNc1nc(-c2ccccc2OC)nc2ccccc12` was tested, and the “activity change, negative = inhibition” value was inactive: 22.8%.
`OCC(O)CO` was tested, and the “activity change, negative = inhibition” value was inactive: 13.7%.
With `CC(C)C[C@H](NC(=O)C1OC1C(=O)O)C(=O)NCCCCN=C(N)N` (stereo partly specified) the “activity change, negative = inhibition” value was inactive: -11.1% [at 75.8 µM].
In the case of `COc1ccccc1N1CCN(CCN(C(=O)c2ccc(F)cc2)c2ccccn2)CC1`, the “activity change, negative = inhibition” value is reported as inactive: -4.64% [at 75.8 µM].
In the case of `c1ccc(-c2ccccn2)nc1`, the “activity change, negative = inhibition” value is reported as inactive: -8.53% [at 75.8 µM].
With `CC1(C)O[C@@H]2C[C@H]3[C@@H]4CCC5=CC(=O)C=C[C@]5(C)[C@H]4[C@@H](O)C[C@]3(C)[C@]2(C(=O)CO)O1` the “activity change, negative = inhibition” value was inactive: 23.5%.
`Cc1ccnc(N)c1` was tested, and the “activity change, negative = inhibition” value was inactive: 8.88%.
With `O=C(CCN1CCN(CCO)CC1)N1c2ccccc2Sc2ccc(C(F)(F)F)cc21` the “activity change, negative = inhibition” value was inactive: 5.8%.
`COc1cc(-c2noc(C)c2C(=O)NCCc2c[nH]c3ccccc23)cc(OC)c1OC` was tested, and the “activity change, negative = inhibition” value was inactive: -1.29%.
With `Cc1ccc(NC(=O)c2cccc(N(C)C)c2)cc1NC(=O)c1ccc(O)cc1` the activity change, negative = inhibition was “inactive”.
`C[C@]12C[C@H](O)[C@H]3[C@@H](CCC4=CC(=O)CC[C@@]43C)[C@@H]1CC[C@@H]2C(=O)CO` was tested, and the activity change, negative = inhibition was “inactive”.
For `CN1C(=O)CCC1c1cccnc1` (stereo unspecified), the activity change, negative = inhibition was “inactive”.
For `NC(=O)OC[C@@H]1[C@H](NC(=O)/C(=N\OCC(=O)O)c2csc(N)n2)C(=O)N1S(=O)(=O)O`, the “activity change, negative = inhibition” value was inactive: -0.613%.
With `CCC1OC(=O)C(C)[C@@H](O[C@H]2C[C@@](C)(OC)C(O)C(C)O2)C(C)[C@@H](O[C@@H]2OC(C)CC(N(C)C)C2O)[C@@](C)(O)CC(C)C2NC(COCCOC)O[C@H](C2C)[C@@]1(C)O` (stereo partly specified) the “activity change, negative = inhibition” value was inactive: 1.4%.
